Assay results published in PubChem BioAssay AID1478 (National Center for Advancing Translational Sciences (NCATS), 2009).
Hit rate of the full screen: of about 200,000 compounds, about 860 (0.43%) were called active. Inconclusive means that the source gave no clear call. Such entries were picked first, then a sample of the others. The call rests on the fitted dose curve; in most records, active means well fitted inhibition curve with a large enough effect; inconclusive means small, poorly fitted or top-dose-only effect; inactive means flat fitted curve, though single readings scatter. Potencies of inconclusive entries are doubtful fits and often do not repeat.

Biological target: Cruzipain (Trypanosoma cruzi) (UniProt P25779)
Experiment: qHTS Assay for Promiscuous and Specific Inhibitors of Cruzain (with detergent); further: nearly all actives have a fitted effect of over 40% in size;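 on max response, negative = inhibition: plate controls were neutral wells for no effect and buffer without enzyme for full effect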
Conditions: purified cruzain, Z-FR-AMC fluorescence, 0.01% Triton
Procedure, shortened: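 Sodium acetate buffer (100 mM, pH 5.5) containing 5 mM DTT and 0.01% Triton X-100 hosted 1.5 nM cruzain and test compound for 15 min at room temperature. Cleavage of 2 uM Z-FR-AMC was then tracked by fluorescence.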
Potency means the concentration at half of the fitted maximal effect; tags describe the fitted curve by direction and shape.

Chain of UniProt P25779 (P25779 whole entry, looked up): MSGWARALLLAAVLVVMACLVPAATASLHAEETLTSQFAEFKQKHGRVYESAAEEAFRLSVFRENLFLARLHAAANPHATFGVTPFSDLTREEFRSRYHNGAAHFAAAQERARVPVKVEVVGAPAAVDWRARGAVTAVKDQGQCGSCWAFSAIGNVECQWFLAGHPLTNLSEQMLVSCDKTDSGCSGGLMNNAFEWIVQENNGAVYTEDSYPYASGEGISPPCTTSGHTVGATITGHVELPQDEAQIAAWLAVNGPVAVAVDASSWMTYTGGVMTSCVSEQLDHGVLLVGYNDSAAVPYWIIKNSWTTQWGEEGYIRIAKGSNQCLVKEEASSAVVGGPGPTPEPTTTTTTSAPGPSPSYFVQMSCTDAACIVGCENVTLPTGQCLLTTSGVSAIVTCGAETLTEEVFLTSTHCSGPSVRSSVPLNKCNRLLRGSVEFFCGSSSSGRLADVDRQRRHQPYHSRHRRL

Q: With COc1ccc(Nc2nc(-c3sc(N)nc3C)cs2)cc1 as the compound, how does the Potency read?
A: active: 15.8 µM

Q: For COc1ccc(NC(=O)COC(=O)CNS(=O)(=O)c2ccc(F)c(F)c2F)cc1OC, which Potency is on record?
A: inconclusive: 25.1 µM [inhibitor, single point]

Q: OC(COc1ccc(C2C=CCC2)cc1)CN1CCCCC1 (configuration not stated) was tested. Which Potency did it give?
A: inconclusive: 31.6 µM [inhibitor, single point]

Q: For CC(C)OC(=O)CN1C(=O)S/C(=C/c2ccc(N3CCCCC3)o2)C1=O, which Potency is on record?
A: inconclusive: 39.8 µM [inhibitor, single point]

Q: O=C(CCN1CCCC1Cc1ccccc1)c1ccc2c(c1)OCCO2 (configuration not stated) was tested. Which Potency did it give?
A: active: 25.1 µM

Q: Which Potency does the source give for CCn1cc(C(=O)O)c(=O)c2cc(F)c(N3CCN(S(=O)(=O)c4ccc(NC(C)=O)cc4)CC3)cc21 here?
A: inconclusive: 35.5 µM [inhibitor, single point]

Q: How did the Potency turn out when O=C(NCc1nc2ccccc2[nH]1)c1c(F)cccc1F was run?
A: inconclusive: 25.1 µM [inhibitor, partial curve]

Q: For Cc1ccc(-c2cc(-c3n[nH]c(=S)o3)c3ccccc3n2)cc1, which Potency is on record?
A: inconclusive: 28.2 µM [inhibitor, single point]

Q: COCCNC(=O)C(OC(=O)CC1Sc2ccccc2NC1=O)c1ccncc1 (configuration not stated) was tested. Which Potency did it give?
A: inconclusive: 17.8 µM [inhibitor, partial curve]

Q: How did the Potency turn out when COc1ccc(N/N=C(/C#N)S(=O)(=O)c2nsc(C)c2C#N)cc1 was run?
A: inconclusive: 22.4 µM [inhibitor, single point]

Q: CCN(Cc1ccccc1)C(=O)c1cc2c(s1)-c1c(C)cccc1OC2 was tested. Which Potency did it give?
A: inconclusive: 31.6 µM [inhibitor, single point]

Q: NC(=O)COC(=O)CNC(=O)c1ccc(Cl)cc1 was tested. Which Potency did it give?
A: inconclusive: 17.8 µM [inhibitor, single point]

Q: Which Potency does the source give for COc1ccc(OC)c(-c2c3cc(O)c(=O)cc-3oc3cc(O)c(O)cc23)c1 here?
A: inconclusive: 22.4 µM [inhibitor, single point]

Q: With NC(=O)CC[C@H](NC(=O)c1ccc(F)cc1)C(=O)OCC(=O)Nc1ccc(N2CCOCC2)cc1 as the compound, how does the Potency read?
A: active: 25.1 µM

Q: Which Potency does the source give for O=C(Nc1cccc(O)c1)c1noc2c1CCc1ccccc1-2 here?
A: inconclusive: 14.1 µM [inhibitor, partial curve]

Q: How did the Potency turn out when CCN1CCS/C1=C/C=C/C1=[N+](CC)CCS1 was run?
A: inconclusive: 28.2 µM [inhibitor, single point]

Q: Clc1cccc(-c2nc3nc4ccccc4nc3n2Cc2ccco2)c1 was tested. Which Potency did it give?
A: inconclusive: 25.1 µM [inhibitor, partial curve]

Q: Which Potency does the source give for COc1ccc(C(C)=O)cc1COC(=O)c1cc(C)oc1C here?
A: inconclusive: 22.4 µM [inhibitor, single point]

Q: With CCOC(=O)c1nn(-c2ccc(OCC)cc2)c2nc(CC(C)C)c(C#N)c(=O)n12 as the compound, how does the Potency read?
A: inconclusive: 31.6 µM [inhibitor, single point]

Q: Which Potency does the source give for C=Cc1c(C)/c2[n-]/c1=C\c1[n-]c(c(CC)c1C)/C=c1\[n-]c3c(c1C)C(=O)C(C(=O)[O-])C=3c1[n-]c(c(C)c1CCC(=O)[O-])\C=2.[Cu].[Na+].[Na+] (configuration not stated) here?
A: inconclusive: 28.2 µM [inhibitor, single point]

Q: How did the Potency turn out when Nc1ccc(-c2nc3c(Cl)cc(N)cc3[nH]2)cc1 was run?
A: inconclusive: 28.2 µM [inhibitor, single point]

Q: Which max response, negative = inhibition does the source give for CC1CCC/C(=N\NC(=S)NCc2ccccc2)C1 (configuration not stated) here?
A: inactive: -1.15%

Q: Which Potency does the source give for C=CCc1ccc(OCCOCCOc2cccc3cccnc23)c(OC)c1 here?
A: inconclusive: 28.2 µM [inhibitor, single point]

Q: With CCn1c(SCC(=O)c2cc(C)ccc2C)nc2cc(S(=O)(=O)N3CCOCC3)ccc21 as the compound, how does the Potency read?
A: inconclusive: 10 µM [inhibitor, partial curve]

Q: COc1ccccc1OCC(=O)NCCc1nc2ccccc2[nH]1 was tested. Which Potency did it give?
A: active: 15.8 µM

Q: CC1(C)Oc2ccc(/C=C/C(=O)N3CCOCC3)c(O)c2C(N2CCOCC2)C1O (configuration not stated) was tested. Which max response, negative = inhibition did it give?
A: inactive: -7.96%

Q: With CC(C)OC(=O)CSc1nc(N)c(C#N)c(-c2ccco2)c1C#N as the compound, how does the Potency read?
A: inconclusive: 31.6 µM [inhibitor, single point]

Q: With CN1C(=O)/C(=C/c2ccc(-c3ccccc3[N+](=O)[O-])o2)SC1=Nc1ccc(Cl)c(C(=O)O)c1 as the compound, how does the Potency read?
A: inconclusive: 28.2 µM [inhibitor, single point]

Q: Which Potency does the source give for CN1CC=C2C(C#N)=C(N)C(C#N)(C#N)C(c3ccncc3)C2C1 (configuration not stated) here?
A: inconclusive: 39.8 µM [inhibitor, single point]

Q: For CCCc1cc(=O)oc2c(CN3CCOCC3)c(O)ccc12, which Potency is on record?
A: inconclusive: 22.4 µM [inhibitor, single point]

Q: Which Potency does the source give for CCS(=O)(=O)c1cccc(C(=O)N2CCN(c3nc4c(C)ccc(Cl)c4s3)CC2)c1 here?
A: active: 7.94 µM

Q: With O=C(NC1CCCCCC1)c1ccc(CS(=O)c2ccc(Br)cc2)o1 (configuration not stated) as the compound, how does the Potency read?
A: inconclusive: 28.2 µM [inhibitor, single point]

Q: With CCOC(=O)c1ccc(NC(=O)CCc2c(C)nc3c(c(C)nn3C(C)(C)C)c2C)cc1 as the compound, how does the max response, negative = inhibition read?
A: inactive: -7.06%

Q: For N#C/C(=C\c1ccc(OCC(N)=O)cc1)c1ccccc1, which Potency is on record?
A: inconclusive: 35.5 µM [inhibitor, single point]

Q: S=C([S-])NCCNC(=S)[S-].[Zn+2] was tested. Which Potency did it give?
A: active: 31.6 µM

Q: How did the Potency turn out when COc1cccc(/C=N/NC(=O)c2cc3cc([N+](=O)[O-])ccc3s2)c1O was run?
A: active: 3.55 µM

Q: Cc1c(CCC(=O)O)c(=O)oc2cc(O)ccc12 was tested. Which Potency did it give?
A: inconclusive: 28.2 µM [inhibitor, single point]

Q: CC(C)OCCCn1c(-c2ccco2)nc2nc3ccccc3nc21 was tested. Which Potency did it give?
A: inconclusive: 17.8 µM [inhibitor, single point]

Q: For CC1Cc2ccccc2N1C(=O)CSc1nnc(NC(=O)Cc2cccs2)s1 (configuration not stated), which Potency is on record?
A: active: 15.8 µM

Q: With CCOc1ccc(NC(=O)N(C)CCc2c(C)nn(C)c2C)cc1 as the compound, how does the max response, negative = inhibition read?
A: inactive: -1.77%

Q: With O=C(CNC(=O)c1ccc(Cl)cc1)OCC(=O)c1ccc2c(c1)OCCO2 as the compound, how does the Potency read?
A: active: 8.91 µM

Q: COc1ccc(NC(=S)NCCCc2ccccc2)cc1 was tested. Which Potency did it give?
A: inconclusive: 14.1 µM [inhibitor, partial curve]
